Common to all, as to assay: protein-binding microarray (PBM)
Details in all cases: PBM: ~300 nM protein, 6 mM HEPES pH 7.8, 80 mM KCl, 0.5 mM EDTA, 0.5 mM EGTA, 6% glycerol, 35 ng/ul poly-dIdC, 1% milk, 1 h, room temperature; Ap Aiptasia and Nv Nematostella (sea anemones) / Co Capsaspora / Aq Amphimedon (sponge) / Dm Drosophila / Hu human; RHD is the Rel homology domain; high values mean tight binding; most listed sequences are background and not binding sites; double strand, one strand shown

For assay [1], the target named is T1, GST-Ap-NF-kB RHD (UniProt A0A913YAJ5).
T1 sequence: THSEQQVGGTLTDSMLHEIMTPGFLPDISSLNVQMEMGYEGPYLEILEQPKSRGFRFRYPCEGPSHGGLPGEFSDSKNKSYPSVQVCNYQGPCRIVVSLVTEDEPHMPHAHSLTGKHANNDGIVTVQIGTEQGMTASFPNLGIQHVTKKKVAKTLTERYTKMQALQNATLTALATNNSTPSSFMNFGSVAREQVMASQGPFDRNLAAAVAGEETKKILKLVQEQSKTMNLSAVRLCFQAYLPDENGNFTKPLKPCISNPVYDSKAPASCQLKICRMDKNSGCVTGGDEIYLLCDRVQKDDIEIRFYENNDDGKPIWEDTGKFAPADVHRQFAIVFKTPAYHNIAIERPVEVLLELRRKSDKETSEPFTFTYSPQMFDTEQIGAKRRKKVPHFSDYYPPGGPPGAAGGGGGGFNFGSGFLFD

Assay [2] deals with T2, GST-Nv-NF-kB (Cys allele) (UniProt E5G601).
T2 sequence: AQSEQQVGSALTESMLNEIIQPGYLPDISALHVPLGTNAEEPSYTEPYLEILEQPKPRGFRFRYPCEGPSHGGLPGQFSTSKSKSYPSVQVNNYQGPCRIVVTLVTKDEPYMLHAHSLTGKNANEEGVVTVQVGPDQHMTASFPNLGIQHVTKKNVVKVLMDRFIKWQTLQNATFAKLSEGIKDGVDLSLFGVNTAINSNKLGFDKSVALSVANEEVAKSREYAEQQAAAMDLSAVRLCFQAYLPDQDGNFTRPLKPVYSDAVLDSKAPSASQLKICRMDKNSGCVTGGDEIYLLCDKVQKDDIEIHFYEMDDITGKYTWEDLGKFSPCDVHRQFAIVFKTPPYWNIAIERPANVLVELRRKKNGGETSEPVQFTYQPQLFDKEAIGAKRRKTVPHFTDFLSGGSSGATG

Assay [3] addresses T3, GST-Co-NF-kB (UniProt F1ARL5).
T3 sequence: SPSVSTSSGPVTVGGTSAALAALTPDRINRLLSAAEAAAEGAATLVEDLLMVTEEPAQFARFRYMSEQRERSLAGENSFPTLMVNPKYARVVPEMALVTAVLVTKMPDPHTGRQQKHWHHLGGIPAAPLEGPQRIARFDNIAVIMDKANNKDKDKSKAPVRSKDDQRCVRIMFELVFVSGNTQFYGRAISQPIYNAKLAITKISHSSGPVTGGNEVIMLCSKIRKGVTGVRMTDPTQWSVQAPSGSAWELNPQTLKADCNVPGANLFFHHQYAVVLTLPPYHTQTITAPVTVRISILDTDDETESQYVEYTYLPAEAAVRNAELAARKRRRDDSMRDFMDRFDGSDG

Assay [4] has as its target T4, GST-Dm-Relish (UniProt Q94527).
T4 sequence: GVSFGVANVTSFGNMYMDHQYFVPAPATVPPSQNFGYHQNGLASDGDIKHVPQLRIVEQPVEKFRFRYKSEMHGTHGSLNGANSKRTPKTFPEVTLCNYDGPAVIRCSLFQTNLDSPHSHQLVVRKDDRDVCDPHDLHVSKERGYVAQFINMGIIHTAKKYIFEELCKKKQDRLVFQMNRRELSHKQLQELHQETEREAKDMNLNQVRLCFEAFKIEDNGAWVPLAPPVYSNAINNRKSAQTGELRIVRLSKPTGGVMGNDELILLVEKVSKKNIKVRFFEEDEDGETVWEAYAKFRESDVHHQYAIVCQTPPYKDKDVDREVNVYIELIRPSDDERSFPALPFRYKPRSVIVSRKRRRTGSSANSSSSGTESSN

This is a selection; strong and weak results do not stand in their true shares. The list includes weakly bound sequences.

For “CCGATTAACATCAAGAAAATTCCTGATGTTAATCGGGTCTTGATTCGCTTGACGCTGCTG”, the figures for the binding signal in assay [1], in assay [2] and in assay [3] were 0.0459 z-score, 0.456 z-score and 0.0868 z-score, respectively.

Consider “CCGATTAACATCAGAAACTCCCATGATGTTAATCGGGTCTTGATTCGCTTGACGCTGCTG”, for which the values for the binding signal in assay [1], in assay [2] and in assay [3] were 3.34 z-score, 3.45 z-score and 0.84 z-score, respectively.

With “CCGATTAACATCAAAAAAATTTCTGATGTTAATCGGGTCTTGATTCGCTTGACGCTGCTG”, the values for the binding signal in assay [1], in assay [2] and in assay [3] were -0.138 z-score, 0.382 z-score and -0.38 z-score, respectively.

On to “CCGATTAACATCAGGTAAGTCCATGATGTTAATCGGGTCTTGATTCGCTTGACGCTGCTG”, for which the binding signal in assay [1] was 0.599 z-score; in assay [2] it was -0.508 z-score; in assay [3] it was -0.449 z-score.

Turning to “CCGATTAACATCAAAACTTCCCCTGATGTTAATCGGGTCTTGATTCGCTTGACGCTGCTG”, the results for the binding signal in assay [1], in assay [2] and in assay [3] were 8.71 z-score, 10.4 z-score and 9.44 z-score, respectively.

For the sequence “CCGATTAACATCAGGGAGGGAAATGATGTTAATCGGGTCTTGATTCGCTTGACGCTGCTG”, the binding signal was 2.6 z-score in assay [1], 4.76 z-score in assay [2] and 3.79 z-score in assay [3].

“CCGATTAACATCAGACATCCCCCTGATGTTAATCGGGTCTTGATTCGCTTGACGCTGCTG”: the binding signal in assay [1] was determined as 5.54 z-score; in assay [2], 5.65 z-score; in assay [3], 3.71 z-score.

For “CCGATTAACATCAGGAATTTTTATGATGTTAATCGGGTCTTGATTCGCTTGACGCTGCTG”, the binding signal in assay [1] was determined as 0.0982 z-score; in assay [2], 0.425 z-score; in assay [3], 0.346 z-score.

“CCGATTAACATCAAAAATTTCCATGATGTTAATCGGGTCTTGATTCGCTTGACGCTGCTG”: the binding signal in assay [1] was -0.195 z-score; in assay [2] it was 0.0391 z-score; in assay [3], -0.204 z-score.

Consider “CCGATTAACATCACCGGATTTCCTGATGTTAATCGGGTCTTGATTCGCTTGACGCTGCTG”, for which the binding signal in assay [1] was 0.853 z-score; in assay [2], 0.688 z-score; in assay [3], 0.397 z-score.

“CCGATTAACATCAAAAAACTTCCTGATGTTAATCGGGTCTTGATTCGCTTGACGCTGCTG”: the values for the binding signal in assay [1], in assay [2] and in assay [3] were 0.172 z-score, -0.0606 z-score and 0.382 z-score, respectively.

Consider “CCGATTAACATCAACGGAATTCCTGATGTTAATCGGGTCTTGATTCGCTTGACGCTGCTG”, for which the binding signal was 0.102 z-score in assay [1], 0.482 z-score in assay [2] and 0.208 z-score in assay [3].

With “CCGATTAACATCACGTGGTTTCCTGATGTTAATCGGGTCTTGATTCGCTTGACGCTGCTG”, the binding signal in assay [1] is 0.303 z-score; in assay [2], -0.188 z-score; in assay [3], 0.354 z-score.

Consider “CCGATTAACATCAGATTTTCCCCTGATGTTAATCGGGTCTTGATTCGCTTGACGCTGCTG”, for which the values for the binding signal in assay [1], in assay [2] and in assay [3] were 8 z-score, 8.78 z-score and 9.39 z-score, respectively.

For the sequence “CCGATTAACATCAGGAAAGGCCCTGATGTTAATCGGGTCTTGATTCGCTTGACGCTGCTG”, the binding signal in assay [1] is 2.38 z-score; in assay [2], 2.62 z-score; in assay [3], -0.993 z-score.

Take “CCGATTAACATCAGGAACTGCCCTGATGTTAATCGGGTCTTGATTCGCTTGACGCTGCTG”: the binding signal is 0.69 z-score in assay [1], 0.321 z-score in assay [2], 0.122 z-score in assay [3] and -0.47 z-score in assay [4].

On to “CCGATTAACATCACGGAAACTCCTGATGTTAATCGGGTCTTGATTCGCTTGACGCTGCTG”, for which the binding signal is -0.682 z-score in assay [1], -0.657 z-score in assay [2], -0.198 z-score in assay [3] and 1.23 z-score in assay [4].

For “CCGATTAACATCAAAAACTTTCCTGATGTTAATCGGGTCTTGATTCGCTTGACGCTGCTG”, the binding signal is 0.569 z-score in assay [1], 0.779 z-score in assay [2], 0.573 z-score in assay [3] and 2.34 z-score in assay [4].

With “CCGATTAACATCAATAAAATTCCTGATGTTAATCGGGTCTTGATTCGCTTGACGCTGCTG”, the binding signal worked out at 0.224 z-score in assay [1], 0.354 z-score in assay [2], 0.342 z-score in assay [3] and 1.81 z-score in assay [4].

Turning to “CCGATTAACATCACCCAGTTCCCTGATGTTAATCGGGTCTTGATTCGCTTGACGCTGCTG”, the binding signal in assay [1] stood at 1.22 z-score; in assay [2] it was 1.21 z-score; in assay [3], 1.44 z-score; in assay [4], 0.726 z-score.

Regarding “CCGATTAACATCACGGCAAGTCCTGATGTTAATCGGGTCTTGATTCGCTTGACGCTGCTG”, the binding signal in assay [1] is -0.283 z-score; in assay [2] it was -0.118 z-score; in assay [3], -0.328 z-score; in assay [4] it was 0.56 z-score.

As to “CCGATTAACATCAGAATTGCCCATGATGTTAATCGGGTCTTGATTCGCTTGACGCTGCTG”, the binding signal in assay [1] was determined as 0.771 z-score; in assay [2], 0.491 z-score; in assay [3], 0.88 z-score; in assay [4], 0.737 z-score.

Consider “CCGATTAACATCAAGAAATTCCTTGATGTTAATCGGGTCTTGATTCGCTTGACGCTGCTG”, for which the binding signal in assay [1] was -0.449 z-score; in assay [2] it was 0.694 z-score; in assay [3] it was -0.114 z-score; in assay [4] it was 0.963 z-score.

For “CCGATTAACATCACGGATTGCCCTGATGTTAATCGGGTCTTGATTCGCTTGACGCTGCTG”, the binding signal in assay [1] was 0.297 z-score; in assay [2], -0.512 z-score; in assay [3] it was 0.124 z-score; in assay [4], -0.115 z-score.

As for “CCGATTAACATCAAAGTGGGAAATGATGTTAATCGGGTCTTGATTCGCTTGACGCTGCTG”, the binding signal is 0.944 z-score in assay [1], 3.3 z-score in assay [2], 2.54 z-score in assay [3] and 0.647 z-score in assay [4].

As to “CCGATTAACATCAGGAGACTCCCTGATGTTAATCGGGTCTTGATTCGCTTGACGCTGCTG”, the binding signal in assay [1] was found to be 2.16 z-score; in assay [2], 2.35 z-score; in assay [3], 1.37 z-score; in assay [4], 1.79 z-score.

The values above are taken from PMC5700166.
